Data from the supplement of paper PMC11417369.
This is one part of the list.

System: PfHDP1 homeodomain (GST-tagged)
Assay: gcPBM binding intensity (ln(normalized median fluorescence intensity)); higher = stronger DNA binding
Outline: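 GST-tagged P. falciparum DNA-binding domains, expressed in E. coli (about 25 μg on average), were applied for 1 h to an Agilent 4 × 180k array of primer-extended double-stranded 36-bp intergenic genomic probes plus negative controls. The binding buffer was 1× PBS with 1% milk, 0.2 mg/ml BSA, 0.5% salmon testes DNA and 0.03% Triton X-100. Bound protein was detected with Alexa488 anti-GST antibody and scanned at 488 nm. Binding intensity is the highest Masliner-normalised natural-log median intensity across replicate spots of either probe orientation.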

Sequence | gcPBM binding intensity (ln)
TAAGGATAAAATAAATGTACATATGTAAAATTATTA [XGTACX_site4170] | 6.18
TTGTTTGATATCTTTGTCACGAAAAAAATATATATA [GTGCAC_negctrl_site54] | 6.47
TTTTTAATAATCTCTCAAAATGTTCTTATATTTTAC [CACACA_negctrl_site1691] | 5.92
TAATCTCATAAAACCGCACACACATAAAATTTGCAT [CACACA_site3890] | 6.87
TTAACAGTAAAACACAGTACATATATACTTAAAACA [XGTACX_site1930] | 6.57
ATTTTTTTCCTAATGGTGCGAATAAATATCCATACC | 7.01
TTTTTTTATTATACTAGTACATATATATACAGCACA [XGTACX_site3464] | 6.86
AAAAAAAAAAAAGGAACACACAAGTAACAATAAATT [CACACA_site2481] | 6.41
AAAGCTTACATATACACACATACATAAATTCATAAA [CACACA_site2469] | 6.66
ATACTAAAGAAACACACACACATATATATATAGAAT [CACACA_site100] | 7.03
TTTACACCCTAAAAATGTACAAGAAAGATTATATTA [XGTACX_site1102] | 6.26
ACATATATATAAAGGTGTACACATATATATATATAT [XGTACX_site4779] | 9.37
TTTGTCATTTTATTATGTACTCAGCATATAGGGGGG [XGTACX_site505] | 8.48
GATTTTTAAAATATCACACATAAAAAAAAAAAAAAA [CACACA_site5516] | 6.47
AAAAAAATTCTGACTTGTACATATAAAATTTACAAA [XGTACX_site4408] | 5.9
TAATTTAATAATTAGACACACATGTGGAAAATAAAA [CACACA_site5401] | 7.1
ATATATTTCCTGAGGAGTACTATGAAAGACAAAAAA [XGTACX_site5628] | 6.77
ATAATTTTGATTATCACACATATATATATATATATG [CACACA_site5882] | 6.96
ATTTATTACAAATGAATGCACTATATCTTAATTTTG | 7.82
TAAGAAAAAAGTAAATGTACAGAGAAAATTATCTAT [XGTACX_site7374] | 6.36
ATTTATTTTTTTATCACACATTTGTGAAATGTGCAT [CACACA_site5869] | 6.83
GTAAAAAGATAATGAAGTACATTTTTTCATTTTTAT [XGTACX_site5579] | 5.97
AAAAAAAAAAAACACACACACACACCCATATACATA [CACACA_site2664] | 6.75

Sequence | gcPBM binding intensity (ln)
ATATATTCAATTCATACACACACAATTTAAGAATGA [CACACA_site9289] | 6.64
CATATCCTTACGAACTGTACAATATTAAGAATAAAA [XGTACX_site1651] | 6.33
ATATTAAGGTTTATATTTTAACTTATTATTTTATTC [CACACA_negctrl_site795] | 6.12
ACATATTTATATATGTGTACATAAATATTCTTTTAA [XGTACX_site8238] | 6.37
ATAAAAAAATCAGACACACACACGTAAACCCATACA [CACACA_site2773] | 6.85
GTTACTGCATACATAACACACATATTCAAAACCCAT [CACACA_site5856] | 6.89
TTTTCCTTTACATAATGTACACAAAAAAAAAAAAAA [XGTACX_site716] | 6.38
TCTTTTTTTTGAATTTGTACATAAGACAATAAAAAA [XGTACX_site4682] | 6.2
CATCATAGAGTGGAGTGTACAAATATGTCAACATAT [XGTACX_site2264] | 6.93
AATACAGACAGACACACACACAAAATAAAATACAAA [CACACA_site245] | 6.88
CTAGACTTTATTAATTGTACATATGTGTATTTTATA [XGTACX_site480] | 6.71
TAGAAGCATTGACACACACACATACATACACATACA [CACACA_site6802] | 7.02
TATATATATATATAATGTACATAATAATAATACATC [XGTACX_site5587] | 9.02
GTCTATAACTATTGCGCACACTTTAAAAAAAAAGAA [CACACA_site1003] | 8.53
AAAGAAAAAAAAATTACACACATATATTATATATAT [CACACA_site3211] | 7.12
TTTTCTTCATAAATGCTGCACTGGTTTAAGCATGAT | 6.7
AAATAGAAGAAATATGCACACATACATTGAAATGTT [CACACA_site7996] | 8.79
TTTATTAATAAACACACACACACACCCAAAATAAAA [CACACA_site7966] | 7.17
CCTTAATATTTTTGAAGTACATATTTATTTTACAAG [XGTACX_site3049] | 6.18
ATTTATATCTCCATATGTTCAAAACTTTCACAAATA [TGCATGCA_negctrl_site108] | 6.48
AAAATAAGTAATTACTAATATATAAATTAATAATTA [CACACA_negctrl_site1602] | 5.84
AATATAAATTAATTTACACACTAAAAAATATATATA [CACACA_site3778] | 6.59
AATTGAAAAATATATAAGAAGAAATATATATATGTT [GTGCAC_negctrl_site97] | 6.57

Sequence | gcPBM binding intensity (ln)
GTTTTTAGTATTTTTTGTACTTAATACATAGCCTTA [XGTACX_site7318] | 6.22
AACACGCGCGGACACACACACACACCCACATATATA [CACACA_site5252] | 6.97
TTAATATGAAATAAATGTACATAATACATAATAAAA [XGTACX_site6194] | 6.44
ATTATGTATACATAAACACACATATTTATAAAAAAA [CACACA_site6261] | 6.67
ATATATTTATATATATGTACATATTATGTTAAGAAA [XGTACX_site1111] | 6.77
TTTATGCATAGAGAAACATGCAAGAAAGATGCAAAA [TGCATGCA_site726] | 6.79
TTCCTTATTATTATTTTACACACGTCCTAATAAGAG [CACACA_site8364] | 7.2
GCTTGTACATTTTTAAAAAATGACTTCGAAAGGAAT [CACACA_negctrl_site453] | 7.01
TTTTAATTAGCTAGACGTACAATAATATACAAATAT [XGTACX_site6068] | 6.38
CATATGTAGGGAACAATATAATATGCTTTGAATATG [GTGCAC_negctrl_site524] | 6.75
ATTTTTTTAAGATAAGAAAAATAAAGTGTGGATATT [XGTACX_negctrl_site476] | 6.54
TATGTATTCATATGTTGTACATTATATATAATAAGT [XGTACX_site6589] | 6.85
AAATCAGAACCTATTTGTACATATACAAAAATGATT [XGTACX_site2421] | 6.16
CAAACCCACGGACACACACACACAAAAATGATTAAA [CACACA_site5365] | 6.34
GGATACGCTTTTGTACCACTCCCCCTTTTGGGAATA [CACACA_negctrl_site1363] | 6.4
TTTATTTATTTATGTGGTACTTCAAAAATATATACT [XGTACX_site355] | 6.54
ATCATATAAACATATTGTACTTAAATACATAATATT [XGTACX_site3800] | 6.44
AACTCTTAGAATGACGGTACAGTATAATAGGTGAAC [XGTACX_site7163] | 6.51
ATATAATGAATTATTAGAAAATAAAATGAATAAAGT [CACACA_negctrl_site690] | 6.86
ATATATATATATAGTGCACACTTAAGAATATAAAGA [CACACA_site4771] | 10.3
AACTATTACTTTCTTTCACACATTTTTTTTTTTTTT [CACACA_site5355] | 6.66
TGTTATATAATTTAGCGTACAGGTTATAGGACGGAT [XGTACX_site8823] | 6.99
CAAAAGAATATATGTAGTACATGTTGTAGATAATAT [XGTACX_site1044] | 7.03

Sequence | gcPBM binding intensity (ln)
CGCGAAGTAGCATTCACACACAGCAAAATATAAATA [CACACA_site7608] | 6.43
GCACAACATATATTATCACACACATATATATATATA [CACACA_site8619] | 9.14
TATAATGAACATATGTGTACATATATTTTTTAAATT [XGTACX_site8736] | 6.29
ACCATATAAATAAACACACACACACCGATATATATA [CACACA_site5310] | 7.05
AAAAAACAAAAAAAAAAAAAAATAATACAATATAAT [CACACA_negctrl_site1630] | 6.13
AAATTGGGTACAAATACACACACATATATATATTAA [CACACA_site8745] | 6.62
TTTATACAATAAAATGCATGCAAGTATCTATTTTAT [TGCATGCA_site210] | 6.43
TCAGATATATAGAATACACACATGGATATAAGAAAT [CACACA_site7831] | 6.8
ATATTTTGTAACTATACACACATATATATATTATAA [CACACA_site3062] | 6.76
TTTTTGTAATATTATGATGTCATATATATATATATA [XGTACX_negctrl_site618] | 9.19
TATCACTATAGACAAGCATGCATATGTACTAATATC [TGCATGCA_site1020] | 6.54
ATATTATAAAATAAAAGTACACAATTATATATATAT [XGTACX_site8812] | 8.61
AATAAAATGGAATACGGTACACATAATCCTAAAATG [XGTACX_site926] | 6.4
TATTTTTAAAATTAAATGAATAAATAAATAAATATA [XGTACX_negctrl_site553] | 5.98
AAATTCACAATGTTTGGTACACATAAAAAAAAAAGA [XGTACX_site7109] | 6.58
AACATACGACAATACGCACACATATCTGTACATATT [CACACA_site5115] | 7.45
AAAAATTTTTTTTTTTTTTTAAATAATAAAAATGAA [CACACA_negctrl_site1435] | 5.94
TATTATTATTTTATGGTGCAAAAAAAAAAAAAAAAA | 9.91
TAACATAAATTTAGGAGTACACTTTTTATACATACA [XGTACX_site4066] | 6.49
TATATATTTATTTATAGTACACTATTTATGAAAACC [XGTACX_site3062] | 6.42
